How the values were obtained:
[1] = Rat PK, single SC dose (Example 4); assay type: in vivo, Sprague-Dawley rats; details: 5 mg/kg subcutaneously
Method: Serum concentrations were then determined using an anti-human Fc based ELISA.
The pharmacokinetic profile of the 16435, 16444, 4241, and 4341 carrier antibodies was determined in adult Sprague-Dawley rats (8-12 weeks old) by injecting 5 mg/kg subcutaneously and collecting approximately 250 μL of blood in Microtainer® serum separator tubes at 0, 0.25, 1, 4, 24, 48, 72, 96, 168, 336, 504, 672, 840 and 1008 hours post-dose from the lateral tail vein. Each sample was maintained at room temperature following collection, and following a 30-40 minute clotting period, samples were centrifuged at 2-8° C. at 11,500 rpm for about 10 minutes using a calibrated Eppendorf 5417R Centrifuge System (Brinkmann Instruments, Inc., Westbury, N.Y.). The collected serum was then transferred into a pre-labeled (for each rat), cryogenic storage tube and stored at −60° C. to −80° C. for future analysis. To measure the serum sample concentrations from the PK study samples, the following method was used: ½ area black plate (Corning 3694) was coated with 2 μg/ml of anti-hu Fc, antibody 1.35.1 in PBS and then incubated overnight at 4° C. The plate was then washed and blocked with I-Block™ (Applied Biosystems) overnight at 4° C. […] The plate was washed, then 50 μl of Pico substrate were added, after which the plate was immediately analyzed with a luminometer.

[2] = tested on: cryosections of selected human tissues; experiment: Human tissue cross-reactivity (immunohistochemistry on cryosections); details: Alexa Fluor 488 labeled antibody at 2.0 or 10.0 μg/mL; preliminary non-GLP study
Method: In general accordance with the guidance laid out in Points to Consider in the Manufacture and Testing of Monoclonal Antibody Products for Human Use (U.S. Department of Health and Human Services, Food and Drug Administration, Center for Biologics Evaluation and Research (1997)), a preliminary non-GLP study was carried out to determine cross-reactivity of inventive antibodies with a variety of human tissues. If an antibody is intended for drug development, a more extensive testing under GLP conditions is required. The tissue cross-reactivity of antibodies 16435 and 4341 was evaluated (Charles River Laboratories, Preclinical Services, Reno, Nev.) with cryosections of selected human tissues using Alexa Fluor 488 labeled forms of the test articles. Normal human tissues from two unique individuals (unless otherwise indicated) were obtained from the Special Pathology Services Human Tissue Bank collected by the National Disease Research Interchange (NDRI, Philadelphia, Pa.), Cureline, Inc. (Burlingame, Calif.), Cybrdi (Rockville, Md.), or Rocky Mountain Lions Eye Bank (Aurora, Colo.). Tissues tested included human cerebellum, lung, cerebral cortex, ovary ([…]), eye, placenta, gastrointestinal tract (small intestine), skin (1 individual), heart, spleen, kidney (1 individual), thyroid, liver, testis. […]

[3] = Light sensitivity: 3 days fluorescent light vs dark, SEC / HIC analysis; assay type: physicochemical; details: 3 days at room temperature, ambient fluorescent light vs aluminum foil
Method: Samples were eluted at 0.8 ml/min with a 0-100% linear gradient over 50 minutes observing the absorbance at 220 nm.
To measure the light sensitivity of the antibodies, they were incubated in ambient lab fluorescent lighting or covered in aluminum foil for 3 days at room temperature. Light exposed and dark control antibodies were then analyzed using two size exclusion columns (TSK-GEL G3000SWXL, 5 mm particle size, 7.8×300 mm, TosohBioscience, 08541) in series with a 100 mM sodium phosphate, 250 mM NaCl, pH 6.8, mobile phase flowed at 0.5 mL/min. […] The antibodies were then analyzed by hydrophobic interaction chromatography (HIC) using two Dionex ProPac HIC-10 columns in series with mobile phase A being 1 M ammonium sulfate, 20 mM sodium acetate, pH 5.0 and mobile phase B being 20 mM sodium acetate, 5% acetonitrile, pH 5.0. Samples were eluted at 0.8 ml/min with a 0-100% linear gradient over 50 minutes observing the absorbance at 220 nm.
To measure the light sensitivity of the antibodies, they were incubated in ambient lab fluorescent lighting or covered in aluminum foil for 3 days at room temperature. The antibodies were then analyzed by hydrophobic interaction chromatography using two Dionex ProPac HIC-10 columns in series with mobile phase A being 1 M ammonium sulfate, 20 mM sodium acetate, pH 5.0 and mobile phase B being 20 mM sodium acetate, 5% acetonitrile, pH 5.0. […]

B1: 4341 (antibody)
heavy: QVQLQESGPGLVKPSQTLSLTCTVSGGSISSGDYFWSWIRQLPGKGLEWIGHIHNSGTTYYNPSLKSRVTISVDTSKKQFSLRLSSVTAADTAVYYCARDRGGDYAYGMDVWGQGTTVTVSSASTKGPSVFPLAPSSKSTSGGTAALGCLVKDYFPEPVTVSWNSGALTSGVHTFPAVLQSSGLYSLSSVVTVPSSSLGTQTYICNVNHKPSNTKVDKRV[here human IgG1 Fc without letters]
light: EIVLTQSPGTLSLSPGERATLSCRASQGISRSELAWYQQKPGQAPSLLIYGASSRATGIPDRFSGSGSGTDFTLTISRLEPEDFAVYYCQQFGSSPWTFGQGTKVEIKRTVAAPSVFIFPPSDEQLKSGTASVVCLLNNFYPREAKVQWKVDNALQSGNSQESVTEQDSKDSTYSLSSTLTLSKADYEKHKVYACEVTHQGLSSPVTKSFNRGEC
[1]
  AUC0-t±SD: 24,513±972 μg/h/mL
[2]
  specific staining of human tissues (cross-reactivity): no specific staining in any human tissue examined
[3]
  light sensitivity (HIC chromatograms with and without light exposure): neither antibody displayed significant differences

Source: patent US9803019B2, “Carrier immunoglobulins and uses thereof” (Amgen Inc., priority 2010, dated 2017)
